# Data as given in PubChem BioAssay AID686970 (National Center for Advancing Translational Sciences (NCATS), 2013).
# “And” between values parts separate entries of the source, which are not always exact repeats. Equal entries are not always repeated. The campaign covered roughly 360,000 compounds. About 6,000 (1.7%) were called active. Inconclusive results, whose numbers are uncertain, are shown with a selection of clear calls. The call rests on the fitted dose curve; in most records, active means well fitted cell-killing curve with a large enough effect; inconclusive means small, poorly fitted or top-dose-only effect, or effect the other way; inactive means flat fitted curve, though single readings scatter. Potencies beside an inconclusive call are fits to weak or partial responses and may not hold up.
# Experiment: qHTS for induction of synthetic lethality in tumor cells producing 2HG: qHTS for the HT-1080-NT fibrosarcoma cell line;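 further: NT is the 2HG producing partner of a matched IDH1 knockdown line; nearly all actives have a fitted effect of over 55% in size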;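 on activity, negative = less viability: 0% = DMSO-treated cells and -100% = media-only wells without cells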
# Conditions: HT-1080-NT fibrosarcoma viability, CellTiter-Glo ATP luminescence, 48 h; activity, negative = less viability: at 46.1 µM (top of the series) unless noted
# How it was run: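 Luminescent CellTiter-Glo readout after 48 hours of compound exposure at 37 degrees C defined viability of HT-1080-NT cells. Activity was normalized to DMSO wells and cell-free media wells; concentration-response curves were fitted and assigned curve classes.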
# Potency means the concentration at half of the fitted maximal effect; tags describe the fitted curve by direction and shape.
SMILES,Potency,"activity, negative = less viability"
CCCCNS(=O)(=O)c1ccc2nc(SCC(=O)Nc3cc(C)cc(C)c3)[nH]c2c1,"inconclusive: 29.1 µM [cytotoxic, single point]",
COc1ccc(Nc2nc(N3CCCCC3)nc3ccccc23)c(OC)c1,"inconclusive: 25.9 µM [cytotoxic, partial curve]",
COc1ccc(-c2noc(-c3ccc(Br)o3)n2)cc1,"inconclusive: 16.4 µM [cytotoxic, single point]",
CCCCNc1c(-c2ccc(OC)c(SC(C)CC)c2)nc2ccc(Cl)cn12 (stereo unspecified),inactive,
O=C(CCl)N1CCN2C(=O)c3ccccc3C12c1ccc(Cl)cc1 (stereo unspecified),active: 9.2 µM,
Cc1c(NC(=S)N/N=C/c2ccc([N+](=O)[O-])cc2O)c(=O)n(-c2ccccc2)n1C,"inconclusive: 29.1 µM [cytotoxic, single point]",
O=C(NC12CC3CC(CC(C3)C1)C2)c1cc2nc(-c3ccco3)cc(C(F)(F)F)n2n1,inactive,
O=C(NCCc1cccs1)c1ccc(CS(=O)Cc2ccc(Cl)cc2)o1 (stereo unspecified),inactive,
CCc1ccc(-c2csc(NC(=O)C3CC(=O)N(c4ccc5c(c4)OCCO5)C3)n2)cc1 (stereo unspecified),"inconclusive: 25.9 µM [cytotoxic, single point]",
COc1cccc(N/C(SC)=C(/C#N)C(N)=O)c1,"inconclusive: 8.91 µM [cytotoxic, partial curve]",
Cc1cc(F)ccc1S(=O)(=O)Nc1ccccc1C(=O)Nc1ccccc1-c1nc2ccccc2[nH]1,"inconclusive: 29.1 µM [cytotoxic, single point]",
O=C1[C@H](Cc2ccccc2)NCCCC[C@@H](c2ccc(Cl)cc2)N1Cc1ccc(Cl)cc1,"inconclusive: 18.4 µM [cytotoxic, partial curve]",
COc1ccc(-c2cc(-c3nnc(COC(=O)CC4CCCC4)o3)c3ccccc3n2)cc1OC,inactive,
COc1ccc(C2c3[nH]c4ccccc4c3C[C@H]3C(=O)N(C4CCN(Cc5ccccc5)CC4)CC(=O)N23)cc1OC (stereo partly specified),"inconclusive: 18.4 µM [cytotoxic, single point]",
CCCS(=O)(=O)NC(=O)C1(C)CCN(C(=O)Cc2cccc3ccccc23)C1 (stereo unspecified),"inconclusive: 20.6 µM [rising, single point]",
O=C(N/N=C/c1cc(Cl)cc([N+](=O)[O-])c1O)c1cccc(S(=O)(=O)N2CCOCC2)c1,active: 16.4 µM,
Cc1nnsc1-c1onc(C)c1C(=O)Nc1cc(Cl)cc(Cl)c1,"inconclusive: 29.1 µM [cytotoxic, single point]",
CC(=O)Nc1ccc(NC(=O)COc2ccc(S(=O)(=O)N3CCCC3)cc2)cc1,inactive,
COC(=O)c1ccc(CSc2nnc(C)s2)cc1,inactive,
Fc1ccccc1-c1nc(NC2CCCC2)c2ccccc2n1,"inconclusive: 11.6 µM [cytotoxic, partial curve]",
CCCCCCNCc1ccc(Br)cc1,"inconclusive: 35.5 µM [cytotoxic, single point]",
Cc1ccccc1N1C(=O)CC(Sc2nnc(-c3ccccc3)o2)C1=O (stereo unspecified),"inconclusive: 20.6 µM [cytotoxic, single point]",
O=C(Nc1cccc(S(=O)(=O)N2CCCCC2)c1)c1ccc([N+](=O)[O-])o1,active: 10.3 µM,
CCOc1ccccc1NC(=O)NC(=O)N(C)S(C)(=O)=O,"inconclusive: 29.1 µM [rising, single point]",

SMILES,Potency,"activity, negative = less viability"
O=C(Nc1ccc(Cl)cc1Cl)c1cccc(N2C(=O)C=CC2=O)c1,"inconclusive: 29.1 µM [cytotoxic, single point]",
c1ccc(-c2noc(CN3CCCC(OCc4ccccn4)C3)n2)cc1 (stereo unspecified),inactive,
CCc1ccc(C(=O)NNC(=O)OC)cc1,inactive,
C=C(C)C(=O)OC1(C(F)(F)F)Oc2cc(C)ccc2NC1=O (stereo unspecified),"inconclusive: 29.1 µM [cytotoxic, single point]",
O=C(NCc1nc2ccccc2[nH]1)C1=C[C@@H](c2ccc(C(F)(F)F)cc2)C[C@@H](OCc2ccc(CO)cc2)O1,"inconclusive: 18.4 µM [cytotoxic, single point]",
CSc1ccc(CN(C)CC(=O)NC(=O)NC(C)(C)C)cc1,inactive,
Cc1ccc(C)c(N2CCN(C(=O)CN3C(=S)NC(C)(C)CC3C)CC2)c1 (stereo unspecified),inactive,
S=C(Nc1ccc(Oc2ccccc2)cc1)NC1CCCCC1,"inconclusive: 18.4 µM [cytotoxic, single point]",
COc1ccccc1C(O)c1ncc(-c2ccccc2C)[nH]1 (stereo unspecified),"inconclusive: 29.1 µM [rising, single point]",
CNC(=S)NCCc1cc2c(OC)ccc(OC)c2[nH]c1=O,inactive,
CCCCN(C)S(=O)(=O)c1ccc(C(=O)Nc2nnc(CSC)o2)cc1,"inconclusive: 35.5 µM [cytotoxic, partial curve]",
Cc1ccccc1NS(=O)(=O)c1cc(C(=O)NCCC2=CCCCC2)ccc1C,,inconclusive: -41.8% [cytotoxic]
CCOCCOC(=O)c1[nH]c2c(c1C)C(=O)CC(c1ccc(OC)c(OC)c1)C2 (stereo unspecified),"inconclusive: 2.91 µM [cytotoxic, single point]",
COC(=O)[C@]12CCCCC=C1N(Cc1ccc3c(c1)OCO3)C(=O)[C@H](CC(=O)NCc1cccc(C(F)(F)F)c1)C2,"inconclusive: 20.6 µM [cytotoxic, single point]",
O=C(Nc1nc2c(s1)CCc1ccccc1-2)c1cccs1,"inconclusive: 23.1 µM [cytotoxic, single point]",
CCOC(=O)N1CCN(C(=O)c2cc(-c3ccncc3)nc3ccccc23)CC1,"inconclusive: 18.4 µM [cytotoxic, single point]",
O=C(NNC1=NC2(CCCC2)Cc2ccccc21)c1ccncc1,inactive,
O=C(Nc1sc2c(c1C(=O)O)CCC2)c1cccc(Cl)c1,"inconclusive: 29.1 µM [cytotoxic, single point]",
COc1ccc(N(CC(=O)Nc2ccc3c(c2)OCCO3)S(=O)(=O)c2c(C)noc2C)cc1,inactive,
CCCOc1ccc(F)cc1-c1cc(C(=O)NCc2cccc(C(F)(F)F)c2)[nH]n1,,inconclusive: -46.7%
Cc1nc2c(cc1C(=O)N/N=C/c1ccc([N+](=O)[O-])cc1)c(=O)n(C)c(=O)n2C,inactive,
CCn1c2ccccc2c2cc(Nc3cc(C)nc4ncnn34)ccc21,active: 0.58 µM,
Cc1nc(-c2ccccn2)nc(SCC(=O)c2ccccc2)c1Cl,"inconclusive: 20.6 µM [cytotoxic, partial curve]",
O=C(NCc1ccc2c(c1)OCO2)C(=O)NC1CCCCC1,,inconclusive: 30.8%

SMILES,Potency,"activity, negative = less viability"
O=c1[nH]c(C2CCN(S(=O)(=O)/C=C/c3ccccc3)CC2)nc2c1nnn2Cc1ccc(F)cc1,"inconclusive: 20.6 µM [cytotoxic, single point]",
Cc1ccc(O)c(C(=O)CC(=O)c2cccc(F)c2)c1,"inconclusive: 29.1 µM [cytotoxic, single point]",
CC(=O)Nc1ccc(Oc2ccc([N+](=O)[O-])cc2Cl)cc1,inactive,
COc1ccc(CC(=O)Oc2cc(C)[nH]c(=O)c2[N+](=O)[O-])cc1,inactive,
CN(C)CCCN(C(=O)c1ccc2c(c1)CCCC2)c1nc2cc3c(cc2s1)OCO3,active: 18.4 µM,
O=C(NCc1cc(Cl)cc(Cl)c1)c1ccc2nc([C@@H]3O[C@H](CO)[C@@H](O)[C@H]3O)[nH]c2c1,inactive,
O=C(Nc1nc(-c2ccccn2)cs1)c1cccc(-n2cnnn2)c1,"inconclusive: 3.26 µM [cytotoxic, partial curve]",
CC(C)CC(NC(=O)c1ccc(Cl)cc1)C(=O)OCC(=O)c1ccc2c(c1)NC(=O)CO2 (stereo unspecified),active: 10.3 µM,
Cc1ccc(-c2[nH]ncc2CNCCc2cnn(-c3ccccc3)c2)cc1C,active: 18.4 µM,
CCC(CC)C(=O)Nc1cccc(C(=O)Nc2ccc(OC)cc2[N+](=O)[O-])c1,"inconclusive: 35.5 µM [cytotoxic, single point]",
CCC(C)Sc1cccc(-c2nc3ccc(C)cn3c2NCc2ccccc2)c1 (stereo unspecified),"inconclusive: 29.1 µM [cytotoxic, single point] and inconclusive: 18.4 µM [cytotoxic, single point]",
Cc1ccc(C(=O)NCc2ccc(Cl)cc2)cc1S(=O)(=O)N1CCCCC1,inactive,
OC(c1cccc(Cl)c1)c1ncc(-c2ccc3ccccc3c2)[nH]1 (stereo unspecified),inactive,
Cc1ccn2cc(-c3cccc(S(=O)(=O)N4CC(C)OC(C)C4)c3)nc2c1 (stereo unspecified),"inconclusive: 18.4 µM [cytotoxic, single point]",
CC1CCN(Cc2c(C(=O)N/N=C/c3ccc(C(C)C)cc3)nnn2-c2nonc2N)CC1,inactive,
O=C(CCSc1nc(-c2ccc3c(c2)OCO3)cc(C(F)(F)F)n1)NCc1ccccc1,inactive,
Cc1ccc2cc(CN(CCCO)S(=O)(=O)c3ccccc3F)c(=O)[nH]c2c1C,inactive,
COc1ccccc1CNCC(O)Cn1c2ccccc2c2ccccc21 (stereo unspecified),"inconclusive: 20.6 µM [cytotoxic, single point]",
C=CCN(CC=C)S(=O)(=O)c1ccc(NC(=S)NC(=O)C2CC2)cc1,"inconclusive: 29.1 µM [cytotoxic, single point]",
Cc1ccc(S(=O)(=O)N2CCCC2C(=O)Nc2nc3c(s2)CCCC3)cc1 (stereo unspecified),inactive,
O=Cc1cc2ccccc2nc1SCc1ccc(Cl)cc1,active: 5.17 µM,
COc1cccc(CN(C)C(=O)C2CCN(S(=O)(=O)c3cccs3)CC2)c1OC,inactive,
CC(C)C[C@H](NC(=O)c1[nH]cnc1C(=O)N[C@@H](Cc1ccccc1)C(=O)OCc1ccccc1)C(=O)OC(C)(C)C,"inconclusive: 20.6 µM [cytotoxic, single point]",
